From publication PMC6919601, “Identification of Plasmodium dipeptidyl aminopeptidase allosteric inhibitors by high throughput screening” (PLoS ONE, 2019)
Among all 110,000 compounds or so, about 230 (0.21%) showed an effect of 50% or more. The list shows a part of the results.

The compounds below were run against DPAP1 (Plasmodium falciparum, UniProt Q8IIJ9) (assay: primary screen, percent inhibition; read by cleavage of a fluorogenic dipeptide substrate; higher = more effect of the substance).
DPAP1, sequence (Q8IIJ9 whole entry, looked up): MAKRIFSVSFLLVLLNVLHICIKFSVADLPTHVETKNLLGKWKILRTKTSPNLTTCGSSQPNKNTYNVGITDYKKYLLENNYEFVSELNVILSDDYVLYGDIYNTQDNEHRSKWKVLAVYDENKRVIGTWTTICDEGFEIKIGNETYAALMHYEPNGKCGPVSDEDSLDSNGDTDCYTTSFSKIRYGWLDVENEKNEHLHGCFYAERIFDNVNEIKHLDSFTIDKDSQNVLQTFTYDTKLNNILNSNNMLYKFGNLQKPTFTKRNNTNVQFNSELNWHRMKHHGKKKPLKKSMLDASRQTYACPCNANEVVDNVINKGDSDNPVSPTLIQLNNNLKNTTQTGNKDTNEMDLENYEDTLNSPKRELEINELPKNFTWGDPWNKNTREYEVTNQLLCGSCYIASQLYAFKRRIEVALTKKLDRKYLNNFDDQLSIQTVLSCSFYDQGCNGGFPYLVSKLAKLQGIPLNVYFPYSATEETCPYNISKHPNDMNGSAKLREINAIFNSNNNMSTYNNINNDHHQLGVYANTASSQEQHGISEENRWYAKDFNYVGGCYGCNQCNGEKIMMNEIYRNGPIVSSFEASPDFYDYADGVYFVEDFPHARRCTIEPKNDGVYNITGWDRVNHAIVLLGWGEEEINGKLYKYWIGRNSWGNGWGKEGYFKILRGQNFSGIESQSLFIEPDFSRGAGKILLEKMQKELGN
Parameters: species or system P. falciparum D10 trophozoite lysates; single well
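Note: 30 min substrate incubation versus DMSO and 10 µM JCP410 controls.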

| Compound | % Inhibition @ 10 uM [%] |
| --- | --- |
| CCC(C)c1ccccc1OCC(=O)Nc1ccc(C(N)=O)cc1 (stereo not drawn) | -2.74 |
| O=C(COc1ccc(Cl)cc1)Nc1cccc(NC(=O)COc2ccc(Cl)cc2)c1 | -2.82 |
| CC(=O)NS(=O)(=O)c1ccc(NC(=O)COc2ccc(Br)c(C)c2)cc1 | 3.58 |
| CCCC1CCc2c(sc(NC(=O)c3ccccc3OCC)c2C(N)=O)C1 (stereo not drawn) | -3.26 |
| CCCS(=O)(=O)N1CCN(Cc2ccc(OC)c(OC)c2)CC1 | -1.6 |
| Cc1coc2c(C)c3oc(=O)c(CC(=O)NCCc4ccccc4F)c(C)c3cc12 | 4.13 |
| Cn1c(=O)c(Sc2ccccc2)c(Cl)c2ccccc21 | -3.77 |
| CC(NC(=O)c1ccccc1[N+](=O)[O-])c1ccccc1 (stereo not drawn) | 0.716 |
| CCC(=O)Nc1nonc1-c1nc2ccccc2n1Cc1cccc2ccccc12 | -1.92 |
| C=CCOC(=O)C1=C(C)N=C2CCCC(O)=C2C1c1ccccc1Cl (stereo not drawn) | 19.2 |
| COc1ccc(CNC(=O)c2cc(-c3cc(OC)ccc3OC)on2)cc1 | 3.55 |
| COC(F)(C(=O)Nc1cccn2cc(-c3ccccc3)nc12)C(F)(F)F (stereo not drawn) | -5.15 |
| Cc1ccc(S(=O)(=O)N(C)CCCC(=O)N2CCN(c3ccccn3)CC2)cc1 | 3.8 |
| CC1CN(c2ncccn2)CC(C)O1 (stereo not drawn) | -4 |
| O=C(c1cc(Cl)ccc1Cl)N1CCN(c2ccc(F)cc2)CC1 | 2.16 |
| Nc1c(-c2nc(-c3cccs3)no2)nnn1-c1ccccc1 | 0.0603 |
| CCC(Sc1nncn2c1cc1oc(C)cc12)C(=O)NCc1ccc(C)cc1 (stereo not drawn) | 0.335 |
| CCNc1nc2nc(O)c3c(c2s1)OC(N)=C(C#N)C3c1cccnc1 (stereo not drawn) | -11 |
| CN(C)CCCC(C(N)=O)c1ccccc1Sc1ccc(Cl)cc1 (stereo not drawn) | -2.34 |
| CC(C)(C)C1CN(C(C)(C)C)CC(O)(c2ccccc2)C1 (stereo not drawn) | -1.54 |
| O=C(c1cc(C2CC2)[nH]n1)N1CCN(C(=O)c2cccs2)CC1 | -3.5 |
| CC(CNCc1c(C(=O)O)n(Cc2ccccc2)c2ccccc12)c1ccccc1 (stereo not drawn) | 5.09 |
| CCC(C)NC(=O)CN(Cc1ccccc1)S(=O)(=O)c1cc(Cl)ccc1Cl (stereo not drawn) | -3.33 |
| Cc1cc(NC(=O)c2cc3nc(-c4ccc(Br)cc4)cc(C(F)(F)F)n3n2)no1 | 2.65 |
| C=CCNC(=O)/C(C#N)=C/c1c(Oc2ccc(C(C)(C)C)cc2)nc2c(C)cccn2c1=O | 0.315 |

| Compound | % Inhibition @ 10 uM [%] |
| --- | --- |
| Fc1ccc(OCCCN2CCCC2)cc1 | -2.12 |
| CCC1C=C(c2ccc([N+](=O)[O-])cc2)OC(N2CCCCC2)C1C (stereo not drawn) | 3.25 |
| O=C(Cn1cnc2ccccc21)Nc1ccc([N+](=O)[O-])cc1 | 4.89 |
| COc1cccc(C2c3c(oc4cc(C)c(C)cc4c3=O)C(=O)N2c2nccs2)c1 (stereo not drawn) | 3.73 |
| Cn1c2ccccc2c2cnn(CC(=O)NCCc3c[nH]c4ccccc34)c(=O)c21 | -3.67 |
| CNC(=O)CCC(=O)N1Cc2cccc(OC)c2Oc2ncccc21 | 2.01 |
| Cc1cccnc1NC(=O)c1cc2c(=O)oc3ccccc3c2s1 | 5.4 |
| c1ccc2nc(N3CCCCCC3)ccc2c1 | -1.2 |
| O=C(Cn1c(=O)n(Cc2ccccc2)c(=O)c2sc3ccccc3c21)NCc1ccccc1 | 2.04 |
| CS(=O)(=O)N1CCN(C/C=C/c2ccccc2)CC1 | -1.18 |
| CO/C(O)=C1/C(C)=Nc2ncnn2C1c1cccnc1 (stereo not drawn) | -2.13 |
| O=C(/C=C/c1ccc(-c2ccccc2)cc1)NCCOc1ccc(F)cc1 | -1.68 |
| N#CC1=C(N)Oc2cc(N)ccc2C1c1cc(Br)cs1 (stereo not drawn) | 3.1 |
| COc1ccc(C(=O)NCCc2cccc(OC)c2)cc1 | -10.3 |
| O=C(CSc1nc(-c2ccco2)nc2cc(=O)[nH]n12)N1CCCC1 | -2.5 |
| Cc1ccc(NC(=O)CC(C(=O)O)c2ccccc2)cc1 (stereo not drawn) | -0.95 |
| CCn1c(C2CC(=O)N(c3ccccc3)C2)nc2ccccc21 (stereo not drawn) | 10.6 |
| COc1ccc(-c2ccc(CNCCSc3nnnn3-c3ccccc3)o2)cc1Cl | 0.596 |
| COc1ccc(C)cc1N(CC(=O)NCC(C)C)S(=O)(=O)c1ccc(C)cc1 | 5.26 |
| COc1ccc(C(=O)CC2(O)C(=O)N(Cc3ccccc3)c3ccccc32)cc1OC (stereo not drawn) | -9.45 |
| O=C(O)COc1ccc(-c2nnn(Cc3ccccc3)n2)cc1 | 5.45 |
| CC1(C)CC2CC(C)(CN2C(=O)c2cc(-c3ccc4c(c3)OCO4)on2)C1 (stereo not drawn) | -3.77 |
| CN(C1CCCCC1)C1CCN(CCc2ccccc2)CC1 | 1.26 |
| COc1cc(C2C(C#N)=C(N)Oc3cc(N)ccc32)ccc1O (stereo not drawn) | -2.32 |
| CC1(C)CC(=O)C2=C(C1)N(CC1CCCO1)C(=O)C2(NC(=O)c1ccco1)C(F)(F)F (stereo not drawn) | -5.4 |

| Compound | % Inhibition @ 10 uM [%] |
| --- | --- |
| O=C(Nc1nc[nH]n1)c1cccc2ccccc12 | -2.42 |
| Cn1c2c(c(=O)n(C)c1=O)C(c1ccc([N+](=O)[O-])cc1)C1=C(O)c3ccccc3C1=N2 (stereo not drawn) | -2.32 |
| C(#Cc1ccc2noc(-c3ccccc3)c2c1)c1ccccc1 | -4.58 |
| O=C(Nc1ccc(S(=O)(=O)N2CCCCC2)cc1)C1CCCCC1 | -5.92 |
| COc1cc(OC)c2c(C(=O)O)cc(-c3ccc(O)c(OC)c3)nc2c1 | 0.8 |
| Cc1nc2ccccc2n1C(C)c1ccccc1 (stereo not drawn) | 7.75 |
| CCc1nc2ccccc2n1Cc1cccc(C)c1 | -2.28 |
| CC(C)C[C@H](NC(=O)c1cc(O)c2ccccc2n1)C(=O)NCC#N | 0.556 |
| O=C(NCc1cccnc1)C1CCCN(S(=O)(=O)c2ccc3nc(O)ccc3c2)C1 (stereo not drawn) | -7.74 |
| COc1cccc(C2CC(=O)N3CN(C4CCCCC4)CSC3=C2C#N)c1OC (stereo not drawn) | 21.8 |
| COc1ccccc1NS(=O)(=O)c1ccc(F)cc1 | 0.827 |
| N#Cc1cn(CC(=O)NCC2CCCO2)c2ccccc12 (stereo not drawn) | 0.777 |
| CCC(C)NC(=O)CCC(=O)N1Cc2cccc(OC)c2Oc2ncccc21 (stereo not drawn) | -0.436 |
| CC1=C(C(=O)Nc2ccccc2C(F)(F)F)C(c2ccc(F)cc2)C2=C(O)CCCC2=N1 (stereo not drawn) | -0.25 |
| CCN1C(=O)N/C(=C/c2cccc(OC)c2OCc2cccc(C(=O)O)c2)C1=O | -2.85 |
| COCCCNc1nc2c(c(=O)n(C)c(=O)n2C)n1Cc1ccccc1C | -3.05 |
| COc1ccc(C(=O)N(Cc2nc(-c3ccc(Cl)cc3)no2)C(C)C)cc1OC | -1.84 |
| COc1ccc(S(=O)(=O)NCCOc2cccc3cccnc23)cc1OC | -2.5 |
| Cc1cc(/C=C2\SC(=O)NC2=O)c(C)n1-c1cccnc1 | 5.3 |
| O=C(O)/C=C\C(=O)Nc1cccc2cccnc12 | -0.127 |
| CCCCCOc1ccc(C2(c3ccccc3)NC(=O)NC2=O)cc1 (stereo not drawn) | -0.687 |
| CC1(C)CC(NC(=O)C2CCCC2)CC(C)(CNC(=O)C2CCCC2)C1 (stereo not drawn) | -3.92 |
| COc1ccc(CCNC(=O)Cn2c(-c3nonc3N)nc3ccccc32)cc1OC | -1.79 |
| CCCC1=C(C(=O)OCC)C(c2ccccc2OCC)NC(=O)N1C (stereo not drawn) | 3.87 |
| Cc1ccc(SCC(=O)Nc2cccc(NC(=O)COc3ccccc3)c2)cc1 | -0.0938 |

| Compound | % Inhibition @ 10 uM [%] |
| --- | --- |
| COc1ccc(/C=C/c2nc(=O)cc(-c3ccccc3)o2)cc1 | 0.275 |
| Cc1ccc(S(=O)(=O)NCc2cn3cccc(C)c3n2)c(C)c1 | 0.00665 |
| CCOc1ccc(-c2nonc2NC(=O)COc2ccc(CC)cc2)cc1OCC | 1.9 |
| CC1CCN(C(=O)CN(c2cccc3ccccc23)S(C)(=O)=O)CC1 | -2.44 |
| O=C(O)c1cccc(NC(=O)c2cccc(NC(=O)c3cccs3)c2)c1 | 3.58 |
| Cc1c(C(=O)NCCC2=CCCCC2)sc2ncnc(N3CCCCC3C)c12 (stereo not drawn) | 4.35 |
| Nc1c(C(=O)Nc2ccc(F)cc2)sc2nc3c(cc12)CCCC3 | -4.66 |
| CC1CCN(c2nc3c(S(=O)(=O)c4ccc(Br)cc4)nnn3c3ccsc23)CC1 | -4.95 |
| Cc1ccc(-n2nnc3c(=O)n(Cc4ccccc4C)cnc32)cc1 | -2.16 |
| O=C(Cn1cc2c(n1)CCCCC2)N1CCC2(CC1)OCCO2 | 0.137 |
| Cc1cc2c(c(=O)n1Cc1ccccc1)C(c1ccc3c(c1)OCO3)C(C#N)=C(N)O2 (stereo not drawn) | 0.343 |
| O=C(Nc1ccc(Cl)c(C(F)(F)F)c1)c1ccco1 | 5.35 |
| COc1ccc(-c2nc(CN(C)C)ccc2O)cc1 | -1.45 |
| COC(=O)c1cc(S(=O)(=O)N2CCN(C(=O)c3ccco3)CC2)cn1C | 3.95 |
| O=C(NC1CCCCCC1)c1oc(=O)c2ccccc2c1-c1ccccc1 | 1.9 |
| CC(=O)Nc1c(C(=O)N2CCc3ccccc3C2)cnn1-c1ccccc1Cl | 0.583 |
| CC1=C(C(=O)NC(C)CCc2ccccc2)C2(CCC(C)CC2)OC1=O (stereo not drawn) | 3.19 |
| O=C(NC12CC3CC(CC(C3)C1)C2)C(=O)c1c[nH]c2ccccc12 | -0.988 |
| O=C(Cn1cc(C(=O)C(F)(F)F)c2ccccc21)NC1CCCC1 | 0.475 |
| COc1ccc(C(Cc2ccccc2)NC2CN3CCC2CC3)cc1 (stereo not drawn) | -4.82 |
| COc1ccc(/C=C2\N=C(c3ccccc3F)OC2=O)cc1 | -4.27 |
| O=S(=O)(c1ccccc1)c1nnn2c1nc(NCC1CCCO1)c1ccccc12 (stereo not drawn) | 6.41 |
| CCOC(=O)N1CCN(C(=O)CNC(=S)N(Cc2cccs2)C2CCCC2)CC1 | 2.9 |
| O=c1c2c([nH]c(=S)n1C1CCCCC1)-c1ccccc1CC21CCCCC1 | -5.62 |
